The values that follow come from ChEMBL document CHEMBL4888484, “Replenishing the malaria drug discovery pipeline: Screening and hit evaluation of the MMV Hit Generation Library 1 (HGL1) against asexual blood stage Plasmodium falciparum ,using a nano luciferase reporter read-out” (2022).

Among all 150,000 compounds or so, about 540 (0.36%) showed an effect of 50% or more. The list shows a part of the results.

This test relates to Plasmodium falciparum. Description: Primary screen in NF54 nanoGlo assay, in single point, at 2uM, 72h; a lower Z score goes with more inhibition. It counts as functional, Erythrocyte. Particulars: timepoint 72 hour.
The term % Inhibition denotes the change of the read-out against control, counted positive when it falls. On to `O[C@]1(C(F)(F)F)CC(c2ccccc2)=NN1c1cccc2cccnc12`, for which the “% Inhibition” value amounted to 1% and the Z score is reported as -0.2.
On the same counts, the results for `CCN(CC1CC1)S(=O)(=O)NCc1ccc(N2CCO[C@@H](C)C2)nc1` are 32% and -3.6.
As for `CC[C@H]1CN(Cc2ccccc2)CCN1C(=O)Nc1ccn(C)n1`, the “% Inhibition” value was -3% and the Z score was 0.37.
For `CCNC(=O)[C@H](C)Nc1ncc(C(F)(F)F)cc1Cl` the same measures were -20% and 1.84.
For `COc1ccc2c(c1)N1CCN(c3ccccc3OC)CC1C(C(=O)NCCN1CCCC1)C2` (stereo not drawn) the same measures were 1% and -0.15.
On the same counts, the results for `Cc1nnc(CCNC(=O)Nc2cc(C)c(F)cc2Cl)s1` are -12% and 1.92.
In the case of `O=C(OCc1ccc(C(F)(F)F)nc1)c1ccc(C(F)(F)F)nc1`, the “% Inhibition” value was found to be 35% and the Z score is -1.
On to `CN(Cc1cnccn1)C(=O)CCCc1ccccc1`, for which the “% Inhibition” value was -4% and the Z score was 0.67.
For the compound `CCc1nc2c(c(OC3CCN(C(=O)NCc4ccco4)CC3)n1)CCOCC2`, the “% Inhibition” value is recorded as -8% and the Z score was 0.93.
Regarding `O=C(c1c[nH]c(-c2ccccc2)n1)N1[C@H]2CCNC[C@@H]1CC2`, the “% Inhibition” value is -10% and the Z score came out at 1.65.
Turning to `O=C1CCN(CC(=O)Nc2ccc(C(F)(F)F)cc2)CCN1`, the “% Inhibition” value is recorded as -12% and the Z score came out at 1.38.
Consider `CN(CC(=O)N1CCCC1)c1ncnc2cccc(F)c12`, for which the “% Inhibition” value is 0% and the Z score came to 0.05.
Consider `O=C(Nc1cnn(-c2nccs2)c1)c1cnc2ccccc2n1`, for which the “% Inhibition” value is -7% and the Z score is 1.27.
For the compound `CCC(C)N1C(=O)[C@@H]2C(Cc3c[nH]c4ccccc34)NC3(C(=O)Nc4c(C)cccc43)[C@@H]2C1=O` (stereo partly drawn), the “% Inhibition” value was found to be 0% and the Z score was -0.06.
For `Cn1ccc(C(=O)N(c2ccccc2F)C2CCCC2)cc1=O` the same measures were -8% and 1.19.
On the same counts, the results for `CNC(=O)C[C@H]1CCN(Cc2cnc(N(C)C)nc2)C1` are -2% and 0.26.
`CCC(CC)(CC)NC(=O)CCc1ccccn1`: the “% Inhibition” value was -2% and the Z score was determined as 0.31.
`CC[C@H]1CCCN(Cc2ccc(OC)c(Cn3cncn3)c2)CC1`: the “% Inhibition” value was 3% and the Z score is recorded as -0.5.
As to `CCNC(=O)c1ccc(NCCc2ccc[nH]2)nn1`, the “% Inhibition” value was determined as 0% and the Z score was 0.04.
Regarding `Cc1cc(C)nc(CN(C)Cc2nc(C)c(C)s2)c1`, the “% Inhibition” value is -4% and the Z score was found to be 0.75.
Regarding `CN(c1ccc(Cl)c(C(=O)NCc2ccc(F)cc2)c1)S(C)(=O)=O`, the “% Inhibition” value is on record as -6% and the Z score came to 0.79.
For the compound `CCOc1ccc(-c2cn3ccn(-c4cccc(F)c4)c(=O)c3n2)cc1`, the “% Inhibition” value is reported as -9% and the Z score was 1.48.
With `Cc1cccc(S(=O)(=O)Nc2nccc(C3CC3)n2)c1F`, the “% Inhibition” value is on record as 18% and the Z score was -1.57.
As to `C=CCc1cc(CNC)cc(OC)c1O`, the “% Inhibition” value was found to be 0% and the Z score was found to be 0.02.
With `Cn1ncc(CCC(=O)NC[C@@H](CO)Cc2ccccc2Cl)n1`, the “% Inhibition” value amounted to 2% and the Z score was -0.4.
Take `CC[C@H](NS(=O)(=O)CCCN1C(=O)c2ccccc2C1=O)c1ccc(Cl)cc1`: the “% Inhibition” value was -1% and the Z score turned out to be 0.09.
Take `COc1cccc(CN2CCC[C@@]3(CCN(C(=O)CCOc4ccccc4)C3)C2)c1OC`: the “% Inhibition” value is reported as -5% and the Z score is given as 0.62.
For `Cc1cccc(S(=O)(=O)n2cc3c(=O)n(C(C)C)c(=O)n(C(C)C)c3n2)c1` the same measures were -2% and 0.21.
For `O=C(Nc1ccccc1)c1ccc(N2CC(N3CCNC3=O)C2)nn1`, the “% Inhibition” value is -7% and the Z score was 0.92.
As for `Cc1ccc(C)c(CN2CC(c3nc(C4CC4)no3)C2)c1`, the “% Inhibition” value was -9% and the Z score stood at 1.74.
For `CCN(C(=O)CCCc1ccccc1)c1nc(C)cs1` the same measures were -4% and 0.76.
Turning to `Cc1nc(-c2cc(S(N)(=O)=O)ccc2F)n(-c2cccc3cccnc23)n1`, the “% Inhibition” value is reported as -8% and the Z score is listed as 1.02.
As for `Cc1ccn(-c2cc(COC(=O)c3cncc(F)c3)ccn2)n1`, the “% Inhibition” value is given as -9% and the Z score is reported as 1.24.
On the same counts, the results for `C[C@H](C(=O)NCCc1ccco1)C1CCN(C(=O)c2cc3ccccc3[nH]2)CC1` are -40% and 3.68.
For `CS(=O)(=O)N(Cc1cccnc1)C1CN(C(=O)c2ccc3cc[nH]c3c2)C1`, the “% Inhibition” value is 5% and the Z score is given as -0.88.
Turning to `CCS(=O)(=O)N1CCC[C@H](CNC(=O)C2CCCC2)C1`, the “% Inhibition” value was -8% and the Z score was 0.81.
On to `C[C@H](c1ccc(C(=O)N2CCOC3(CCC3)C2)cc1)C(F)(F)F`, for which the “% Inhibition” value was -1% and the Z score worked out at 0.17.
`O=C(CCn1cncn1)Nc1ccc2c(Cl)ccc(Cl)c2n1`: the “% Inhibition” value is 4% and the Z score is listed as -0.41.
On the same counts, the results for `CC(C)N(CCc1nccs1)C(=O)c1cncc(O)c1` are -6% and 0.88.
On the same counts, the results for `CC(O)CC1COCCN1C(=O)NCc1cccc(C(F)(F)F)c1` (stereo not drawn) are -4% and 0.51.
`Cc1nnc2sc(-c3ccc(NC(=O)Cc4ccccc4)cc3)nn12`: the “% Inhibition” value worked out at 4% and the Z score is listed as -0.52.
For `COCC1(C2CCC2)CN(C(=O)N[C@H]2CCc3c2ccc(Cl)c3Cl)C1` the same measures were -6% and 0.89.
Take `Cc1cc(C(=O)Nc2ccnc(Oc3ccc(F)cc3F)c2)no1`: the “% Inhibition” value was 33% and the Z score is given as -3.75.
On the same counts, the results for `COc1nc(C)c(C(=O)N2[C@@H]3CC[C@H]2CNC(=O)C3)s1` are 14% and -2.46.
On the same counts, the results for `Cc1cnc(C)c(N2CCC(Oc3ccc4ccccc4c3)(C(=O)O)CC2)n1` are -9% and 1.86.
Consider `Cc1cc(COc2ccccc2)oc1C(=O)N1Cc2nc[nH]c2C[C@H]1C(=O)O`, for which the “% Inhibition” value is reported as -4% and the Z score is listed as 0.78.
Take `COC(=O)N1CC(NC(=O)c2cc(-c3cc(C)oc3C)nc3onc(C)c23)C1`: the “% Inhibition” value is -2% and the Z score turned out to be 0.26.
For the compound `COc1ccc(Cl)cc1NC(=O)CN1CCc2nc(NC(=O)c3ccoc3)sc2C1`, the “% Inhibition” value was 11% and the Z score is -1.47.
For `Cc1noc(C)c1C(=O)Nc1nc(C(F)(F)F)n[nH]1`, the “% Inhibition” value is -15% and the Z score worked out at 1.69.
For `CC(C)C[C@H](N)C(=O)N(C)CCc1ccc(F)cc1` the same measures were -9% and 1.11.
Consider `CC(C)(C)n1cc(CN2CCC[C@@H]2CC(=O)c2ccc(F)cc2)nn1`, for which the “% Inhibition” value was -16% and the Z score turned out to be 1.62.
With `CCc1ccc(CNC(=O)c2ccc(-c3c(-c4ccc(F)cc4)ncn3C3CCCCC3)o2)cc1`, the “% Inhibition” value is -13% and the Z score came to 2.04.
In the case of `O=C(Cc1c[nH]c2ccccc12)N1CCC[C@H]1c1nc2ccccc2s1`, the “% Inhibition” value was -12% and the Z score is 2.22.
On to `O=C(Nc1c2c(nn1-c1ccccc1)CS(=O)(=O)C2)C1CCCC1`, for which the “% Inhibition” value was -12% and the Z score turned out to be 2.04.
As for `O=C(Nc1ccnn1C1CCN(CC2CCC2)CC1)c1ccc2c(c1)OCO2`, the “% Inhibition” value was 3% and the Z score is -0.43.
On the same counts, the results for `Cc1ccc(S(=O)(=O)N2CCC(c3c(C)n(Cc4c(F)cccc4Cl)c4ccccc34)CC2)c(C)c1` are -3% and 0.39.
Consider `Cc1[nH]nc(CCC(=O)NCCc2nc(C3CC3)no2)c1C`, for which the “% Inhibition” value was 7% and the Z score is reported as -0.7.
Consider `Cc1nc2c(C(=O)NCCCN3CCOCC3)cccc2[nH]1`, for which the “% Inhibition” value is -10% and the Z score was 1.07.
As for `COCc1c(C(=O)NCC[C@H]2CCCN2C)cnn1-c1ncc2c(n1)-c1ccccc1CCC2`, the “% Inhibition” value worked out at 3% and the Z score was -0.4.
On the same counts, the results for `CCCCc1nn(CC(=O)NCc2n[nH]c(C)n2)c(=O)n1CC` are -17% and 1.65.
Take `N#CC1(c2nc(-c3ccnc(O)c3)no2)CCCCC1`: the “% Inhibition” value is -10% and the Z score worked out at 2.03.
`COCCN(C)C[C@H]1C[C@H](CO)CN(C(=O)c2cc3ccccc3s2)C1`: the “% Inhibition” value was -8% and the Z score is on record as 1.06.
`Cc1c(N2CCOCC2)c(C)n(Cc2cccc(C(F)(F)F)c2)c1C(=O)Nc1cccc(F)c1`: the “% Inhibition” value was -9% and the Z score stood at 1.8.
For the compound `Cc1nnnn1CC(O)CN1CC(C)OC(C)C1` (stereo not drawn), the “% Inhibition” value is -4% and the Z score is 0.51.
`COc1ccc(OC)c(CNC(=O)c2ccc(CN3C(=O)CCn4nc(-c5ccccc5)cc43)cc2)c1`: the “% Inhibition” value came to 8% and the Z score is -0.9.
Turning to `Cc1ccc(C(=O)NC[C@H]2CCCN2C2CCCCC2)nn1`, the “% Inhibition” value is recorded as -2% and the Z score amounted to 0.29.
Consider `CCOc1ncccc1C(=O)NCc1cc(-c2cccs2)on1`, for which the “% Inhibition” value is reported as 3% and the Z score was -0.35.
For the compound `Cc1oc2ncnc(N3CCC[C@H](C(=O)Nc4cc(F)ccc4F)C3)c2c1C`, the “% Inhibition” value is on record as -6% and the Z score turned out to be 0.61.
Regarding `C[C@H]1CCc2nc3ncn(CC(=O)NC4CCCCCC4)c(=O)c3cc2C1`, the “% Inhibition” value is on record as -10% and the Z score was determined as 1.51.
`COc1ccccc1-n1nc(CN(C(=O)C(C)(C)C)C2CC2)c2c1CCN(Cc1ccccc1F)C2`: the “% Inhibition” value is listed as -3% and the Z score is reported as 0.62.
On the same counts, the results for `CC(=O)N(CCc1noc(C(C)C)n1)[C@H]1CCN(C(=O)c2cccs2)C1` are -11% and 0.97.
On to `CCOCCCN(CC(=O)N(Cc1ccccc1)Cc1ccc(C)o1)C(=O)CC(C)(C)C`, for which the “% Inhibition” value is given as -27% and the Z score was determined as 2.67.
`Cc1ccc(CNC(=O)Cn2c(C)cc3nc4n(c(=O)c32)CCCCC4)cc1`: the “% Inhibition” value was -8% and the Z score is 1.42.
For `Cc1cc(COc2ccccc2)oc1C(=O)N[C@H]1CCCCNC1=O`, the “% Inhibition” value is -6% and the Z score stood at 1.07.
Regarding `COc1ncccc1-c1nc(C)ccc1C#N`, the “% Inhibition” value is -8% and the Z score was 1.46.
Turning to `O=C(Cn1nnc2ccccc21)N[C@H]1CCN(c2ccc3nncn3n2)C1`, the “% Inhibition” value is reported as 0% and the Z score is recorded as -0.04.
For `O=C(O)c1cccnc1CN1CCN(c2ccc(Cl)c(Cl)c2)CC1` the same measures were -13% and 1.39.
For `OCC(C1CC1)C(NCc1cscn1)C1CC1` (stereo not drawn) the same measures were -7% and 0.76.
In the case of `CN(Cc1ccon1)c1nc(-c2ccco2)nc2c1CCNCC2`, the “% Inhibition” value is listed as -17% and the Z score was 1.74.
For `COc1cccc(CCCN=C(N(C)C)N(C)C)c1` the same measures were 3% and -0.29.
With `CCn1cnnc1CNC(=O)c1ccc2c(c1)OCCO2`, the “% Inhibition” value turned out to be 1% and the Z score was -0.11.
In the case of `CC(C)[C@@H]1CCCN1C(=O)c1cnn2cccnc12`, the “% Inhibition” value was -1% and the Z score stood at 0.22.
On to `CN(C)C(=O)N1CCC(c2nnc(CN3CCCCCC3)n2C)CC1`, for which the “% Inhibition” value is on record as -17% and the Z score amounted to 1.83.
For `CN(Cc1oc2ccccc2c1Cl)[C@@H]1COC[C@H]1O`, the “% Inhibition” value is -6% and the Z score is given as 0.61.
